Reference: the RNAGym collection of RNA variant scans (doi:10.1093/nar/gkz1192)
Read counts are not given, so values of variants with three or more changes are uncertain.

B1: CPEB3 Ribozyme (parent)
chain: UAACAGGGGGCCACAGCAGAAGCGUUCACGUCGCAGCCCCUGUCAGAUUCUGGUGAAUCUGCGAAUUCUGCUGUAUAUCUC

Variants of: B1
Experiment: self-cleavage, relative activity (ratio to wild type); higher = more cleavage; in vitro, sequencing
Summary of the method: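 CPEB3 self-cleaving ribozyme mutant libraries were made by rounds of error-prone PCR, barcoded, and transcribed in vitro with T7 RNA polymerase for 5 hours at 37°C. Cleavage occurred during transcription and a 15 min DNase I step before EDTA stop. RNAs were reverse transcribed with template switching and Illumina-sequenced, with DNA sequencing mapping barcodes to variants. Relative activity is the variant's cleaved/total read fraction divided by wild type's (minimum 5 reads), averaged across three batches.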

Variant	self-cleavage
A45U A65U G73A C79U	0.25
A45U A65U U78A	0.1
A45U A75G U80A	0.46
A45U C62A U67C G73A	0.16
A45U C62U G73U	0.11
A45U G46U U72C	0.14
A45U G52U A57U A65G	0.09
A45U G52U A64G	0.31
A45U G55A U60A	1.04
A45U G55A U60G A64G U69C U72A	0.07
A45U G61C A65G	0.13
A45U U48A U58A	0.09
A45U U48C A65G U66C U67C	0.09
A45U U49A A56G U67A U78C	0.1
A45U U49A A64G U72C	0.11
A45U U49A U58A A75G U80C	0.05
A45U U49A U78A	0.21
A45U U49C A56G	0.43
A45U U49C C62U	0.17
A45U U49C C68U	0.09
A45U U49C G52A U69G	0.1

Variant	self-cleavage
A45U U49C U51G A57G U80C	0.16
A45U U49C U69C	0.16
A45U U51A A56G	0.4
A45U U51A A65G A75C	0.15
A45U U51A U66A	0.11
A45U U51C U67C	0.24
A45U U51G U60A U76A	1.06
A45U U54A C79U	0.78
A45U U54A U69C U80C	0.38
A45U U54C U76C	0.64
A45U U58C A64G U72G	0.12
A45U U58C A65G	0.09
A45U U60C A77U	0.62
A45U U66C A77G	0.17
A45U U66C U72C	0.18
A45U U67A U80C	0.22
A45U U67C U80A	0.15
A45U U67C U80G	0.11
A45U U69A A77U U78A	0.39
A45U U72C A75U	0.14
A45U U72G G73A	0.65

Variant	self-cleavage
A45U U78C C79A	0.77
A45U U78G U80C	0.35
G46A A47G U67A	0.17
G46A A56G G61A	0.09
G46A C59A U66C U69A	0.47
G46A G52U C68U U69C	0.16
G46A U54C A57G	0.11
G46A U54C A65G C71A	0.06
G46A U54C C59A	0.27
G46A U54C C59U C68A	0.28
G46A U66C U78A U80C	0.11
G46A U69A U72A	0.07
G46C A47G C68A U72C U74C	0.17
G46C A47G U51A	0.15
G46C U49C U60A A77U	0.1
G46U A47C A57G U67C U72C A75G	0.09
G46U A47U A56G G73U	0.18
G46U A56G A64G	0.17
G46U A56G C62U A65U	0.06
G46U U49A U54A	0.17
G46U U51C A77G	0.11

Variant	self-cleavage
G46U U58C U67A	0.19
G46U U72A U74G U76A	0.1
A47C A57G A75U	0.43
A47C A65G U67C	0.15
A47C U48C C59U	0.27
A47C U49C U54G	0.15
A47C U51A A75G	0.33
A47C U51A U67C	0.08
A47C U51C U66A U78C C79A	0.15
A47C U60A G61U	0.1
A47C U66C U78A U80A	0.18
A47G A56G A57G	0.33
A47G A56G A64G U78C	0.48
A47G A56G G70C	0.18
A47G A56G U69A	0.18
A47G A56G U80A	1.17
A47G A56U A75G	0.51
A47G A56U C62A A75G	0.15
A47G A56U U69A	0.24
A47G A57G A64G U78A	0.34
A47G A57G U58C A65G U78C	0.39
